Assay results reported in PubChem BioAssay AID652104 (National Center for Advancing Translational Sciences (NCATS), 2013).
Hit rate of the full screen: of about 410,000 compounds, about 7,200 (1.8%) were called active. Inconclusive results, whose numbers are uncertain, are shown with a selection of clear calls. The call rests on the fitted dose curve; in most records, active means well fitted activation curve with a large enough effect; inconclusive means small, poorly fitted or top-dose-only effect, or another doubt; inactive means no such curve, though single readings can be large or run the other way. No potency is given beside an inconclusive call; the fits are too rough.

Assay: qHTS of TDP-43 Inhibitors; further: nearly all actives have a fitted effect of over 50% in size; on growth rescue (activation): % of control where 0% means no effect
Details: TDP-43 expressing yeast growth rescue, BacTiter-Glo, 24 h; growth rescue (activation): at 46.1 µM (top of the series) unless noted
How it was run: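 Luminescence from BacTiter-Glo reports growth of TDP-43-expressing yeast after 24 hr at 30 deg C with compound. Cells were raffinose-pregrown to mid-log, then seeded in galactose medium at OD600=0.02.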
Potency means the concentration at half of the fitted maximal effect; tags describe the fitted curve by direction and shape.

Row | SMILES | Potency | growth rescue (activation)
1 | O=S(=O)(Nc1ccc(-n2cccc2)cc1)c1ccccc1 | inconclusive [activator, single point] | –
2 | CCc1cccc(C)c1NC(=O)c1cc2ccccc2o1 | inconclusive [activator, partial curve] | –
3 | COc1cccc(CNc2nc3cc(-c4cnn(Cc5ccccc5)c4)sc3c(=O)n2C)c1 | inconclusive [activator, partial curve] | –
4 | O=C(NCCCc1ccccc1)c1cccc([N+](=O)[O-])c1 | inconclusive [activator, partial curve] | –
5 | Cc1nc(Nc2ccc3c(c2)OCCO3)c2oc3ccccc3c2n1 | inconclusive [activator, full curve, poor fit] | –
6 | Cc1ccc(Nc2c3c(nc4ncnn24)CC(C)CC3)cc1 (stereo unspecified) | inconclusive [activator, single point] | –
7 | O=C(OCC(=O)N1CCCc2ccccc21)c1cncc(Br)c1 | inconclusive [activator, partial curve] | –
8 | O=S(=O)(Cc1ccccc1Cl)CC(O)COc1ccccc1Cl (stereo unspecified) | inconclusive [activator, single point] | –
9 | COc1cccc(N2CCN(C(=O)c3ccc4c(Cl)c5c(nc4c3)CCCC5)CC2)c1 | inconclusive [activator, partial curve] | –
10 | Cc1ccc2oc(-c3ccc(NC(=O)c4cccnc4)cc3)nc2c1 | inconclusive [activator, partial curve] | –
11 | CC(=O)Nc1cccc(OCc2c(F)cccc2Cl)c1 | inconclusive [activator, partial curve] | –
12 | C=CCNC(=S)NNC(=O)COc1ccc(Cl)cc1Cl | inconclusive [activator, partial curve] | –
13 | Cc1cc2c(cc3c(SCc4cccc(Cl)c4)nnc(C)n32)o1 | active: 20 µM | –
14 | CCCCNC(=O)C[C@@H]1C[C@@]2(C(=O)OCC)CCCC=C2N(CCC2=CCCCC2)C1=O | active: 35.5 µM | –
15 | O=C(Nc1nc(-c2cc3ccccc3oc2=O)cs1)c1ccco1 | active: 3.55 µM | –
16 | CCOc1cccc(C(=O)NC(=S)Nc2ccccc2)c1 | inconclusive [activator, partial curve] | –
17 | COc1ccccc1OCCOCCOc1ccc(C)cc1Br | inconclusive [activator, partial curve] | –
18 | O=C(NCCc1ccc(Cl)cc1)C1CCN(C(=O)N2CCOc3ccccc32)CC1 | – | inactive: 20.8%
19 | Cn1c2ccccc2c(=O)c2cc(C#Cc3ccc(N)cc3)ccc21 | inconclusive [activator, partial curve] | –
20 | N#Cc1cccc(C=C(C(=O)c2ccccc2)c2ccccc2)c1 | inconclusive [activator, partial curve, poor fit] | –
21 | CNC(=O)c1cccc(-n2c(C)nc3cccnc32)c1C | – | inactive: 8.45%
22 | O=S(=O)(NCc1ccccc1)c1ccccc1NCCc1ccccc1 | inconclusive [activator, partial curve, poor fit] | –

Row | SMILES | Potency | growth rescue (activation)
23 | O=C(/C=C/c1ccc(Cl)cc1Cl)n1cccn1 | inconclusive [activator, single point] | –
24 | O=C(CSc1nccn1-c1ccc(Cl)cc1)NCc1ccc2c(c1)OCO2 | inconclusive [activator, partial curve] | –
25 | O=S(=O)(NCc1csc(-c2ccccc2)n1)c1ccccc1 | inconclusive [activator, partial curve] | –
26 | CC(C)(C)/C(O)=C(/C#N)c1nc2ccccc2[nH]1 | inconclusive [activator, partial curve] | –
27 | COC(=O)[C@]1(Cc2ccccc2)N[C@H](c2ccc(-c3ccc(OC)cc3)cc2)[C@@H]2C(=O)N(C)C(=O)[C@@H]21 | inconclusive [activator, full curve, poor fit] | –
28 | CCC(C)n1c(=N)c(C(=O)NCc2ccco2)cc2c(=O)n3cc(C)ccc3nc21 (stereo unspecified) | – | inactive: -6.15%
29 | COc1ccc(C(=O)N/N=C(/C)c2ccc(N3CCCCC3)cc2)cc1 | inconclusive [activator, single point] | –
30 | Oc1ccc(-c2nccc(-c3ccc(Cl)cc3)n2)cc1 | inconclusive [activator, partial curve] | –
31 | Cc1cc(C)c(C)c(S(=O)(=O)N2CCC(C(=O)NCc3ccco3)CC2)c1C | inconclusive [activator, single point] | –
32 | O=C1CC(c2ccccc2)(c2ccccc2)c2ccccc21 | inconclusive [activator, single point] | –
33 | COc1ccc(-c2cc(C(=O)N(C)Cc3cccc(OC)c3OC)c3ccccc3n2)cc1OC | inconclusive [activator, single point] | –
34 | COc1cccc(NC(=O)c2ccccc2-c2nc(-c3ccc(Cl)cc3)no2)c1 | – | inactive: 6.76%
35 | O=C(O)C1C2C=CC(C3CC23)C1C(=O)N1CCc2ccccc21 (stereo unspecified) | inconclusive [activator, single point] | –
36 | COC(=O)[C@]1(C)CCC[C@@]2(C)C3CC[C@@]4(C)C[C@]3(CCC21)CC(=O)N4C (stereo partly specified) | inconclusive [activator, single point] | –
37 | c1ccc(-c2cc3cc4c(cc3cn2)OCO4)cc1 | inconclusive [activator, partial curve] | –
38 | S=C(NCc1ccccc1)N1CCn2cccc2C1c1ccncc1 (stereo unspecified) | inconclusive [activator, single point] | –
39 | CC(C)C[C@H](NC(=O)OC(C)(C)C)c1nnc(SCC(=O)Nc2ccc(Br)cc2)o1 | active: 0.316 µM | –
40 | O=[N+]([O-])c1ccc2c(c1)-c1ccccc1C2=NO | inconclusive [activator, partial curve] | –
41 | COC(=O)c1cccc(CN2C(=O)SC(Nc3ccccc3C)C2=O)c1 (stereo unspecified) | inconclusive [activator, partial curve] | –
42 | COC(=O)Cc1ccc(NC(=S)Nc2cccc(C)n2)cc1 | inconclusive [activator, partial curve] | –
43 | COc1ccccc1CNC(=O)N1CCN(c2ccccc2C)CC1 | inconclusive [activator, single point] | –
44 | CCn1c(CNC(=O)c2cccc(C)c2)nnc1SCC(=O)NC1=NCCS1 | – | inactive: -2.22%

Row | SMILES | Potency | growth rescue (activation)
45 | Cc1ccc2nc(/C(C#N)=C/c3ccc(-c4ccc(C(=O)OC(C)C)cc4)o3)[nH]c2c1 | – | inactive: 29.7%
46 | COc1ccc(C2=NC(C(F)(F)F)(C(F)(F)F)c3c(n(C)c(=O)n(C)c3=O)N2)cc1 | inconclusive [activator, full curve] | –
47 | COc1cccc(Nc2ccc(C(=O)O)cc2N)c1 | inconclusive [activator, partial curve] | –
48 | Cc1ccc(S(=O)(=O)N2[C@@H](c3ccc(F)cc3)C(C(=O)O)=CC[C@H]2c2cccc(Cl)c2)cc1 | active: 22.4 µM | –
49 | CSc1cccc(NC(=O)COC(=O)C2(c3ccccc3)CC2)c1 | inconclusive [activator, single point] | –
50 | Cc1c(C(=O)Oc2ccc(Br)cc2)sc2ncn(Cc3ccccc3F)c(=O)c12 | inconclusive [activator, partial curve, poor fit] | –
51 | Cn1c(=O)c2c(nc(Br)n2CC(=O)c2cccs2)n(C)c1=O | – | inactive: -46.5%
52 | COc1ccc(-c2nc3cc(C)c(Br)c(C)n3c2CC(C)(C)C)cc1OC | inconclusive [activator, full curve, poor fit] | –
53 | COC(=O)c1ccc(OCC(=O)N2CCCc3ccccc32)cc1 | inconclusive [activator, partial curve] | –
54 | c1ccc(Nc2nc(-c3ccccc3)nc3ccccc23)cc1 | inconclusive [activator, partial curve] | –
55 | Cc1cc(Br)ccc1NC(=O)c1ccccc1-c1ccccc1 | inconclusive [activator, single point] | –
56 | COC(=O)C(=N/Nc1ccccc1C(=O)OC)/C(C)=N/O | inconclusive [activator, partial curve] | –
57 | Cc1nc(N2CCCCC2C)c2c(C)c(C(=O)Nc3ccccc3C(F)(F)F)sc2n1 (stereo unspecified) | active: 14.1 µM | –
58 | CN(CC(=O)Nc1ccc(F)cc1[N+](=O)[O-])Cc1ccccc1 | inconclusive [activator, full curve] | –
59 | Cc1nc2ccc(NC(=O)c3ccc([N+](=O)[O-])cc3[N+](=O)[O-])cc2s1 | inconclusive [activator, partial curve] | –
60 | O=[N+]([O-])c1cccnc1Sc1ccc(Cl)cc1 | inconclusive [activator, partial curve] | –
61 | CN(C(=O)COC(=O)CN1C(=O)c2ccccc2C1=O)c1c(N)n(Cc2ccccc2)c(=O)[nH]c1=O | inconclusive [activator, full curve, poor fit] | –
62 | CCCC(=O)OC1=C(C(C)=O)N(Cc2ccccc2)S(=O)(=O)c2ccccc21 | active: 11.2 µM | –
63 | CCn1c(SCc2nc(-c3ccccc3)no2)nnc1-c1ccco1 | active: 17.8 µM | –
64 | O=C(NCc1cccnc1)c1[nH]c(C(F)(F)F)nc1-c1ccccc1 | inconclusive [activator, full curve, poor fit] | –
65 | O=C1CCSC2(C(=O)N(Cc3ccccc3)c3ccccc32)N1c1ccccc1 (stereo unspecified) | inconclusive [activator, single point] | –
66 | O=C(CSCC(=O)OCn1nnc2ccccc2c1=O)Nc1ccc(Cl)cc1 | inconclusive [activator, single point] | –
